Laboratory results published in PubChem BioAssay (Tox21).
This list was built around the results that the source calls inconclusive (neither active nor inactive); the mix of calls is not that of the screen. For some of these results: Potencies beside an inconclusive call are fits to weak or partial responses and may not hold up. Calls of active or inactive are those of the source. Unless noted, calls follow the shape of the dose curve; as a rule, active = well fitted curve in the direction sought with a large enough effect in the repeat runs; inconclusive = weak or mixed curves; inactive = no such curve, though single readings can be large; an effect the other way counts as inactive or inconclusive.

Experiments:
[1] = target: Peroxisome proliferator-activated receptor gamma (Homo sapiens) (UniProt P37231); experiment: qHTS assay to identify small molecule antagonists of the peroxisome proliferator-activated receptor gamma (PPARg) signaling pathway (AID 743191; calls by dose curve; also: nearly all actives have a fitted effect of over 30% in size; also: potency is read from the fitted curve at half-maximal effect; as to ratio activity, negative = inhibition: % is scaled to controls: 0 for no effect and ±100 for the full control effect); details: HEK293H PPARg-UAS-bla, beta-lactamase ratio, antagonist, 17 h; ratio activity, negative = inhibition: at 62.6 µM (top of the series) unless noted
Method in brief: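 GeneBLAzer PPARg UAS-bla HEK293H cells carrying a UAS-driven beta-lactamase reporter were plated at 3000 cells/well, preincubated 5 h at 37C, then given compound for 17 h at 37C; LiveBLAzer B/G FRET substrate was read after 1 h at room temperature.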

[2] = qHTS assay to identify small molecule antagonists of the peroxisome proliferator-activated receptor gamma (PPARg) signaling pathway - cell viability counter screen (AID 743194); details: PPARg-bla HEK293H viability, CellTiter-Glo luminescence, 17 h, co-treated with 50 nM rosiglitazone; activity change, negative = cytotoxicity: at 62.6 µM (top of the series) unless noted; also: nearly all actives have a fitted effect of over 55% in size; also: potency is read from the fitted curve at half-maximal effect
Method in brief: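 PPARg-UAS-bla HEK293H cells were plated, rested 5 h at 37 C, then treated with compounds plus rosiglitazone (50 nM final) for 17 h at 37 C; viability was then read by CellTiter-Glo luminescence after 30 min at room temperature.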

[3] = qHTS assay for small molecule agonists of the antioxidant response element (ARE) signaling pathway (AID 743202; active = well fitted activation curve with a large enough effect in the signal ratio in the repeat runs, not every such curve was filed as active; inconclusive = weak or mixed curves, or effect the other way; inactive = no such curve, though single readings can be large or run the other way; the % refers to the signal ratio; also: % is scaled to controls: 0 for no effect and ±100 for the full control effect); details: HepG2 ARE-bla reporter, beta-lactamase FRET, 16 h
Method in brief: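 Read-out: LiveBLAzer B/G FRET substrate fluorescence after 2 h at room temperature, following 16 h compound treatment at 37 C of HepG2 cells carrying an ARE-driven beta-lactamase reporter.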

[4] = qHTS assay for small molecule activators of the heat shock response signaling pathway - cell viability counter screen (AID 743209); details: HSE-bla HeLa viability, CellTiter-Glo luminescence, 5 h; activity change, negative = cytotoxicity: at 62.6 µM (top of the series) unless noted; also: potency is read from the fitted curve at half-maximal effect; nearly all actives have a fitted effect of over 50% in size
Method in brief: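 First, HSE-bla HeLa cells were seeded at 1500 cells/well and kept overnight at 37 C. Next, compounds were pinned in and incubated 5 h. After the FRET substrate step, CellTiter-Glo was added and luminescence read 30 min later.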

[5] = qHTS assay for small molecule activators of the heat shock response signaling pathway (AID 743210; active = well fitted activation curve with a large enough effect in the signal ratio in the repeat runs, with a control signal flat, not every such curve was filed as active; inconclusive = weak or mixed curves; the % refers to the signal ratio; also: potency is read from the fitted curve at half-maximal effect); details: HeLa HSE-bla reporter, beta-lactamase ratio, 5 h; activation: at 62.6 µM (top of the series) unless noted
Method in brief: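 HSE-bla HeLa cells (beta-lactamase reporter under heat shock response elements) were exposed to compounds for 5 h at 37 C, then loaded with LiveBLAzer B/G FRET substrate for 2.5 h at room temperature before fluorescence reading.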

[6] = qHTS assay to identify small molecule agonists of the peroxisome proliferator-activated receptor delta (PPARd) signaling pathway - cell viability counter screen (AID 743211); details: PPARd-bla HEK293H viability, CellTiter-Glo luminescence, 17 h; activity change, negative = cytotoxicity: at 62.6 µM (top of the series) unless noted; also: potency is read from the fitted curve at half-maximal effect; nearly all actives have a fitted effect of over 55% in size
Method in brief: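 Tox21 library compounds, delivered in DMSO, were incubated 17 h with PPARd-bla HEK293H cells; cytotoxicity was taken from CellTiter-Glo luminescence read 30 min after reagent addition.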

[7] = target: Peroxisome proliferator-activated receptor delta (Homo sapiens) (UniProt Q03181); experiment: qHTS assay to identify small molecule antagonists of the peroxisome proliferator-activated receptor delta (PPARd) signaling pathway (AID 743215; active = well fitted inhibition curve with a large enough effect in the signal ratio in the repeat runs, not every such curve was filed as active; inconclusive = weak or mixed curves, or effect the other way; inactive = no such curve, though single readings can be large or run the other way; the % refers to the signal ratio;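 also: cells stimulated with agonist L165041 at 300 nM final during compound exposure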; also: potency is read from the fitted curve at half-maximal effect); details: HEK293H PPARd-UAS-bla, beta-lactamase FRET ratio, antagonist, 17 h; ratio activity, negative = inhibition: at 62 µM (top of the series) unless noted
Method in brief: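 Inhibition of L165041-driven (300 nM final) PPARd signaling is scored in HEK293H UAS-bla cells. Exposure lasts 17 h at 37 C; beta-lactamase activity is then read by FRET substrate fluorescence after 2 h at room temperature.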

[8] = target: Bile acid receptor (Homo sapiens) (UniProt Q96RI1); experiment: qHTS assay to identify small molecule antagonists of the farnesoid-X-receptor (FXR) signaling pathway (AID 743217; active = well fitted inhibition curve with a large enough effect in the signal ratio in the repeat runs, not every such curve was filed as active; inconclusive = weak or mixed curves, or effect the other way; inactive = no such curve, though single readings can be large or run the other way; the % refers to the signal ratio; also: % is scaled to controls: 0 for no effect and ±100 for the full control effect); details: HEK293T FXR-UAS-bla, beta-lactamase ratio, CDCA-stimulated, 16 h; activity change, negative = inhibition: at 62.6 µM (top of the series) unless noted
Method in brief: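 Antagonist mode against 50 uM (final) chenodeoxycholic acid stimulation in FXR-bla HEK 293T cells, 16 h at 37 °C. Inhibition detected as reduced beta-lactamase activity via LiveBLAzer B/G FRET fluorescence after 2 h at room temperature.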

[9] = target: Bile acid receptor (Homo sapiens) (UniProt Q96RI1); experiment: qHTS assay to identify small molecule agonists of the farnesoid-X-receptor (FXR) signaling pathway (AID 743220; active = well fitted activation curve with a large enough effect in the signal ratio in the repeat runs, not every such curve was filed as active; inconclusive = weak or mixed curves, or effect the other way; the % refers to the signal ratio; also: % is scaled to controls: 0 for no effect and ±100 for the full control effect); details: HEK293T FXR-UAS-bla, beta-lactamase FRET ratio, 16 h; activation: at 62.6 µM (top of the series) unless noted
Method in brief: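 Beta-lactamase reporter under UAS control in GeneBLAzer FXR HEK 293T cells (5000/well) measured with LiveBLAzer FRET substrate after 2 h at room temperature. Compound exposure lasted 16 h at 37C.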

[10] = target: Vitamin D3 receptor (Homo sapiens) (UniProt P11473); experiment: qHTS assay to identify small molecule agonists of the vitamin D receptor (VDR) signaling pathway (AID 743222; calls by dose curve; also: potency is read from the fitted curve at half-maximal effect); details: HEK293T VDR-UAS-bla, beta-lactamase FRET ratio, 16 h; activation: at 63.5 µM (top of the series) unless noted
Method in brief: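 Quantitative HTS agonist-mode screen: compounds in DMSO were pin-transferred onto VDR-bla cells and incubated 16 h at 37C, 5% CO2. Reporter activity was detected with LiveBLAzer B/G FRET substrate after 2 h at room temperature.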

[11] = qHTS assay for small molecule agonists of the antioxidant response element (ARE) signaling pathway - cell viability counter screen (AID 743203; calls by dose curve; also: % is scaled to controls: 0 for no effect and ±100 for the full control effect; nearly all actives have a fitted effect of over 55% in size); details: ARE-bla HepG2 viability, CellTiter-Glo luminescence, 16 h; viability change, negative = cytotoxic: at 73.3 µM (top of the series)
Method in brief: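 Seeded at 2,000 cells/well, ARE-bla HepG2 cells were incubated 5 hrs before compound addition. After 16 hrs of treatment at 37C with 5% CO2, CellTiter-Glo reagent was added and luminescence read 30 min later.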

[12] = qHTS assay to identify small molecule antagonists of the peroxisome proliferator-activated receptor delta (PPARd) signaling pathway - cell viability counter screen (AID 743213); details: PPARd-bla HEK293H viability, CellTiter-Glo luminescence, 17 h; viability change, negative = cytotoxic: at 62 µM (top of the series) unless noted; also: nearly all actives have a fitted effect of over 50% in size; also: potency is read from the fitted curve at half-maximal effect
Method in brief: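 Same-well viability: cells pre-incubated 5 h, dosed with compound plus 300 nM L165041, kept 17 h at 37 C, FRET substrate 2 h RT, then CellTiter-Glo 30 min RT and luminescence.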

[13] = qHTS assay to identify small molecule agonists of the farnesoid-X-receptor (FXR) signaling pathway - cell viability counter screen (AID 743218); details: FXR-bla HEK293T viability, CellTiter-Glo luminescence, 16 h; viability change, negative = cytotoxic: at 62.6 µM (top of the series) unless noted; also: nearly all actives have a fitted effect of over 45% in size; also: potency is read from the fitted curve at half-maximal effect
Method in brief: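 Cytotoxicity counter-screen run in parallel, same wells: FXR-UAS-bla HEK 293T cells dosed 16 h at 37 C, viability read by CellTiter-Glo luminescence after 30 min at room temperature.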

[14] = target: Vitamin D3 receptor (Homo sapiens) (UniProt P11473); experiment: qHTS assay to identify small molecule antagonists of the vitamin D receptor (VDR) signaling pathway (AID 743223; active = well fitted inhibition curve with a large enough effect in the signal ratio in the repeat runs, not every such curve was filed as active; inconclusive = weak or mixed curves, or effect the other way; inactive = no such curve, though single readings can be large or run the other way; the % refers to the signal ratio; also: potency is read from the fitted curve at half-maximal effect); details: VDR-UAS-bla HEK293T, beta-lactamase FRET ratio, 16 h; activity change, negative = inhibition: at 61 µM (top of the series) unless noted
Method in brief: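 Quantitative HTS in VDR-bla reporter cells stimulated with 1alpha,25-dihydroxyvitamin D3, 3 nM final. Compound exposure 16 h, 37C, 5% CO2. Read-out: beta-lactamase FRET substrate fluorescence, 2 h RT.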

[15] = activation: at 73.3 µM (top of the series) unless noted
Tags tell the direction and shape of the fitted curve or compound fluorescence and quenching.

UniProt Q96RI1, sequence (Q96RI1 whole entry, looked up): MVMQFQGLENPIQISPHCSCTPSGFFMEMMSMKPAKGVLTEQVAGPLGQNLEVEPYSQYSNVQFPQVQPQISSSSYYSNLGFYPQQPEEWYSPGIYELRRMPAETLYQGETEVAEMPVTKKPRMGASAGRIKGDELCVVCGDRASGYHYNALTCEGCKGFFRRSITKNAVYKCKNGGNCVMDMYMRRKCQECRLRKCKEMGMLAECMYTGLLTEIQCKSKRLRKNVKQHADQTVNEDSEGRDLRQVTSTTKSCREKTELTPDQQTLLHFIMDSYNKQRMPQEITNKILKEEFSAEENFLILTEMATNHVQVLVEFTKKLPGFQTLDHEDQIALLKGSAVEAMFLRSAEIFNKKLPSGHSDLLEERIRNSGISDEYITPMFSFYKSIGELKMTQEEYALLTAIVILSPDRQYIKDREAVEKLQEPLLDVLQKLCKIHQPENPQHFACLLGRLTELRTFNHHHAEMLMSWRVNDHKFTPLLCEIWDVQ
UniProt P11473, sequence (P11473 whole entry, looked up): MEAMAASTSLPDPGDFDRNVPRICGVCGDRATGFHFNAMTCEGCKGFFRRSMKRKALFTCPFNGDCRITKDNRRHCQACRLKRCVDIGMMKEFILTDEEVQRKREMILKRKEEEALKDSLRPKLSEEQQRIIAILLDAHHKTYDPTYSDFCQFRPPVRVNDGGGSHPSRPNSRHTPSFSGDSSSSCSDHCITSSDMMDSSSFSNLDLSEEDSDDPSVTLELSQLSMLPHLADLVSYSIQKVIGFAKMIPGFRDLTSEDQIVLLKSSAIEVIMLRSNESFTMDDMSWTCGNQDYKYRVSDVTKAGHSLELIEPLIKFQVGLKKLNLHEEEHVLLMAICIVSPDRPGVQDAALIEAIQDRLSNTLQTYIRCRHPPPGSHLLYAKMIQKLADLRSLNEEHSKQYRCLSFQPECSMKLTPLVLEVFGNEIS
UniProt P37231, sequence (P37231 whole entry, looked up): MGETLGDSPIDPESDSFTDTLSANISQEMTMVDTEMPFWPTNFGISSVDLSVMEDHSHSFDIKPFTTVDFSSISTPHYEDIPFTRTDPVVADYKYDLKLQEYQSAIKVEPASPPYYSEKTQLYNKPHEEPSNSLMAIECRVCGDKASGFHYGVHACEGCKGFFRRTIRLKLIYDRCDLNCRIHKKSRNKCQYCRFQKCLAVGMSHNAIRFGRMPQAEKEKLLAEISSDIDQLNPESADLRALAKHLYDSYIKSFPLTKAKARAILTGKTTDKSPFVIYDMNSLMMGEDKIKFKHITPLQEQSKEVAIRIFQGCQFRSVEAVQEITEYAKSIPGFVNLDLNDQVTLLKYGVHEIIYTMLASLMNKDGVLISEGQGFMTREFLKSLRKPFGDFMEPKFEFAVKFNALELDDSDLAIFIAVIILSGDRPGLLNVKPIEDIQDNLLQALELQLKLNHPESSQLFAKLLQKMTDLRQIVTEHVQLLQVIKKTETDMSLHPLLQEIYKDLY
UniProt Q03181, sequence (Q03181 whole entry, looked up): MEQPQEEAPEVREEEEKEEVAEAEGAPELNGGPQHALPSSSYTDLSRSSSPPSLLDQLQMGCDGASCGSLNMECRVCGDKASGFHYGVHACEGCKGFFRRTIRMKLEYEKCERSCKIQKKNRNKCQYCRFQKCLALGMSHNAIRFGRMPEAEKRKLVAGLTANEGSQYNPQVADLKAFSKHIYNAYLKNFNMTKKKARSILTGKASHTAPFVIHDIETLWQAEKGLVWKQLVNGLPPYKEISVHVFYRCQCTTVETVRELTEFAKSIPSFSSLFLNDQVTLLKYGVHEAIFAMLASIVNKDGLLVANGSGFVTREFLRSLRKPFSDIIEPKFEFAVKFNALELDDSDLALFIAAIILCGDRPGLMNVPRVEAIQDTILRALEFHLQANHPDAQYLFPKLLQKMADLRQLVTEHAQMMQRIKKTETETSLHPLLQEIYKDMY

Cc1occc1SSc1ccoc1C
inactive: Potency [1] | Potency [2] | Potency [8]
active: Potency [5] 23.6 µM
inconclusive: activation [3, 15] 41% | Potency [4] 24.5 µM [cytotoxic, full curve] | Potency [6] 61.6 µM [cytotoxic, single point] | ratio activity, negative = inhibition [7] 4.98% | activation [9] 6.4% | activation [10] -6.35%

CC1CCCCN1CCCOC(=O)c1ccc(OC2CCCCC2)cc1 (configuration not stated)
inactive: Potency [11] | Potency [12]
inconclusive: Potency [1] 33.5 µM [activator] | Potency [2] 335 nM [cytotoxic, full curve, poor fit] | activation [3, 15] 9.87% | Potency [6] 2.37 µM [cytotoxic, full curve] | Potency [13] 1.19 µM [cytotoxic, single point]

CC(C)CCCCCCCOC(=O)CCCCC(=O)OCCCCCCCC(C)C
inconclusive: Potency [1] 28.6 µM [inhibitor, partial curve, poor fit] | Potency [2] 61.6 nM [rising, full curve, poor fit] | activity change, negative = cytotoxicity [2] -23.1% [at 81.1 µM] | Potency [12] 28.6 µM [cytotoxic, single point] | Potency [10] 61.6 µM [falling, partial curve, poor fit]
inactive: Potency [5] | Potency [13]

COC(=O)c1cccc(C(=O)OC)c1
inactive: Potency [1] | activation ([3]; at 73.3 µM (top of the series)) 6.35% | Potency [12]
inconclusive: Potency [2] 4790 nM [rising, full curve, poor fit] | activation [3, 15] 32.1% | Potency [7] 6.9 nM [fluorescent, full curve, poor fit] | activity change, negative = inhibition [14] 22.5%

CC1=C(Br)C(=O)C(Br)=C/C1=C(/c1ccccc1S(=O)(=O)O)c1cc(Br)c(O)c(Br)c1C
inactive: Potency [2] | Potency [3, 15] | Potency [8]
inconclusive: ratio activity, negative = inhibition [1] 3.87% | viability change, negative = cytotoxic [12] -27.9% [cytotoxic] | Potency [14] 14.9 µM [activator]
